Whole data set: some 33,000 sequences, median “E-score (-0.5 to 0.5)” near -0.04, cut for the highest 2% near 0.36. Some of the results follow.
The sequences below were run against T1, Hmlalpha2 (UniProt P0CY09) (assay: PBM E-score (8-mer binding enrichment) (E-score (-0.5 to 0.5)); higher = stronger / more preferred TF binding; most listed sequences are background and not binding sites). Settings: protein concentration: 200 nM; construct: GST-full length.
T1 sequence: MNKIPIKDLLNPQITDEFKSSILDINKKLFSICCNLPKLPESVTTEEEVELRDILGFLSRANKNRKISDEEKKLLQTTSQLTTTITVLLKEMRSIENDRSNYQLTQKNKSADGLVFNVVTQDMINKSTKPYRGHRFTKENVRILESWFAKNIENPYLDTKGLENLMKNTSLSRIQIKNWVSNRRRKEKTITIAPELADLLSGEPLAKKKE
Method in brief: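 The E-score, a modified Wilcoxon-Mann-Whitney statistic, was computed by the Universal PBM Analysis Suite for every ungapped eight-base word pooled with its reverse complement. Scans behind it were normalised with masliner after bound GST-tagged yeast transcription factors were detected with fluorescent anti-GST. The proteins, at about 100-200 nM, had been applied to universal all-10-mer Agilent arrays made double-stranded by primer extension.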
CTGGTTTC was tested, and the “PBM E-score” value was -0.195. AAGGCTGA was tested, and the “PBM E-score” value was -0.209. In the case of AAATTGTG, the “PBM E-score” value is reported as 0.0827. With AAGAACAC the “PBM E-score” value was 0.343. With CAGTGCAC the “PBM E-score” value was -0.229. For AAAAACAC, the “PBM E-score” value was 0.291. For ACCTGACC, the “PBM E-score” value was -0.165. For GACCCCAC, the “PBM E-score” value was -0.192. For GAGAACCC, the “PBM E-score” value was -0.337. In the case of GGTCGTGA, the “PBM E-score” value is reported as -0.1. For ATACTTTG, the “PBM E-score” value was 0.125. With TCAATGGA the “PBM E-score” value was -0.0655. CTCTTATA was tested, and the “PBM E-score” value was 0.0306. AATTATCT was tested, and the “PBM E-score” value was -0.0497. For AGATGCAG, the “PBM E-score” value was 0.0314. In the case of GTAGCGTA, the “PBM E-score” value is reported as 0.066. For AGTGTGCA, the “PBM E-score” value was 0.113. CTGGCGGC was tested, and the “PBM E-score” value was -0.239. ACGTTGAT was tested, and the “PBM E-score” value was 0.194. For CAAGACGA, the “PBM E-score” value was 0.0184. In the case of CATAGGTA, the “PBM E-score” value is reported as 0.244. In the case of ACAGCCCA, the “PBM E-score” value is reported as 0.0329. ATTTGAGC was tested, and the “PBM E-score” value was -0.00795. CCGACCGG was tested, and the “PBM E-score” value was -0.275. With CGATGCAA the “PBM E-score” value was -0.144. For ATGACATA, the “PBM E-score” value was 0.324. ATTCGATG was tested, and the “PBM E-score” value was 0.0784. In the case of ATCGCTCA, the “PBM E-score” value is reported as -0.129. For AGCCATGA, the “PBM E-score” value was -0.116. AACATTTA was tested, and the “PBM E-score” value was 0.242. With GGGAGCCC the “PBM E-score” value was -0.334. With TAACTTCA the “PBM E-score” value was 0.133. For AAAGAACA, the “PBM E-score” value was 0.283. In the case of CTGTTGTA, the “PBM E-score” value is reported as 0.253. For CAGATTAG, the “PBM E-score” value was -0.131. In the case of GACAACAA, the “PBM E-score” value is reported as 0.244. For AGTGAAGA, the “PBM E-score” value was -0.0801. AATTTTCC was tested, and the “PBM E-score” value was 0.0164. For GAGTGCAC, the “PBM E-score” value was -0.155. For AGAGATAT, the “PBM E-score” value was 0.0274. For AGCGGAAG, the “PBM E-score” value was -0.194. CGGGAAAA was tested, and the “PBM E-score” value was 0.0469. With CCTATAAA the “PBM E-score” value was -0.158. In the case of GCCGGCGA, the “PBM E-score” value is reported as -0.285. In the case of ATTTTGCA, the “PBM E-score” value is reported as 0.162. GACCGGCC was tested, and the “PBM E-score” value was -0.264. AGCCGTAT was tested, and the “PBM E-score” value was -0.0624. For CCAGTGCC, the “PBM E-score” value was -0.265. ACGCAGCC was tested, and the “PBM E-score” value was 0.224. AAAAGCCG was tested, and the “PBM E-score” value was -0.159. In the case of AAATTAGT, the “PBM E-score” value is reported as 0.115. In the case of AATCAAAA, the “PBM E-score” value is reported as 0.0538. In the case of CCGCGCAC, the “PBM E-score” value is reported as -0.178. In the case of ACGTAGTC, the “PBM E-score” value is reported as 0.0592. CAATTAAC was tested, and the “PBM E-score” value was 0.289. CCCGCCGG was tested, and the “PBM E-score” value was -0.287. With GAGGCAGA the “PBM E-score” value was -0.265. In the case of CCAGTACA, the “PBM E-score” value is reported as 0.197. ATCTTGAC was tested, and the “PBM E-score” value was -0.098. In the case of AGGGGTTC, the “PBM E-score” value is reported as -0.344. With AATTGGCA the “PBM E-score” value was -0.0269. With GGTCCAGA the “PBM E-score” value was -0.0593. CGTGAATC was tested, and the “PBM E-score” value was 0.0398. With GTTCCGCA the “PBM E-score” value was -0.15. For AGGTGGAC, the “PBM E-score” value was -0.142. GAACGGTA was tested, and the “PBM E-score” value was 0.0762. In the case of AACGTACG, the “PBM E-score” value is reported as 0.186. In the case of ACGTGAAT, the “PBM E-score” value is reported as 0.21. ACTGCCTG was tested, and the “PBM E-score” value was -0.0553. CGTCTACC was tested, and the “PBM E-score” value was -0.0439. For GCGGCTAC, the “PBM E-score” value was 0.0144. In the case of ACGATGCG, the “PBM E-score” value is reported as 0.119. For AAGTAGAT, the “PBM E-score” value was 0.0114. In the case of CGCTCACG, the “PBM E-score” value is reported as -0.0819. With ATAAAATA the “PBM E-score” value was 0.269. In the case of CCGCCCCG, the “PBM E-score” value is reported as -0.252. In the case of AAACGTCC, the “PBM E-score” value is reported as -0.115. With GTGTTCGA the “PBM E-score” value was 0.187. CGTTTTCA was tested, and the “PBM E-score” value was 0.104. For ACTTCTTG, the “PBM E-score” value was 0.0173. With GCTTCACA the “PBM E-score” value was 0.114. In the case of AATCTCAG, the “PBM E-score” value is reported as -0.157. For AGTCGCAT, the “PBM E-score” value was -0.057. For ATTATGAA, the “PBM E-score” value was 0.113. With GCGAGCAC the “PBM E-score” value was -0.172. With GCTCAAAC the “PBM E-score” value was 0.139. In the case of CTCATACC, the “PBM E-score” value is reported as -0.0108. For GATTGGGA, the “PBM E-score” value was -0.244. In the case of GATGTCGC, the “PBM E-score” value is reported as -0.0917. CGCTAGTA was tested, and the “PBM E-score” value was -0.0238. CTGGTGGC was tested, and the “PBM E-score” value was -0.194. In the case of CGACATAC, the “PBM E-score” value is reported as 0.114. With AGTTGGAT the “PBM E-score” value was -0.00109. AGTTACAC was tested, and the “PBM E-score” value was 0.426. For GCAGGATA, the “PBM E-score” value was -0.059. For GACGGCAC, the “PBM E-score” value was -0.252. With ATATAGAG the “PBM E-score” value was -0.187. For CAGAATCG, the “PBM E-score” value was -0.162. In the case of ACCTCCTA, the “PBM E-score” value is reported as -0.17. AAGCGGGT was tested, and the “PBM E-score” value was -0.171. With ATTCCCTC the “PBM E-score” value was -0.173. In the case of GAACAGAA, the “PBM E-score” value is reported as -0.109. In the case of CCTTAAGA, the “PBM E-score” value is reported as -0.203. GTAAAGTA was tested, and the “PBM E-score” value was 0.354. With AACCAGAG the “PBM E-score” value was -0.0148. CAAGTGTC was tested, and the “PBM E-score” value was 0.0177. GCACGACC was tested, and the “PBM E-score” value was -0.188. CCAATGTA was tested, and the “PBM E-score” value was 0.157. For CGTTACTC, the “PBM E-score” value was 0.0233. CCGGTTAA was tested, and the “PBM E-score” value was -0.0848. CGCAGGTA was tested, and the “PBM E-score” value was 0.118. AGCCGGAC was tested, and the “PBM E-score” value was 0.0571. In the case of CGCCCCCC, the “PBM E-score” value is reported as -0.332. With GGGGAGAA the “PBM E-score” value was -0.237. AATTGGCC was tested, and the “PBM E-score” value was -0.176. In the case of ATTTATAC, the “PBM E-score” value is reported as 0.292. With GCCTTCCA the “PBM E-score” value was -0.35. For TATCATGA, the “PBM E-score” value was 0.123. In the case of GACCCGAC, the “PBM E-score” value is reported as -0.283. In the case of CCAAACGG, the “PBM E-score” value is reported as -0.32. ACCTTATA was tested, and the “PBM E-score” value was -0.0304. For ACCTAGAA, the “PBM E-score” value was 0.0631. In the case of CTTATAAC, the “PBM E-score” value is reported as 0.284. For ATACAGCG, the “PBM E-score” value was 0.00439. GCTCAGTA was tested, and the “PBM E-score” value was 0.152. In the case of ACGAGTAA, the “PBM E-score” value is reported as 0.219. AAAGTTTG was tested, and the “PBM E-score” value was 0.0346. CTACCCAC was tested, and the “PBM E-score” value was -0.23. In the case of CTCGGCCA, the “PBM E-score” value is reported as -0.163. For ACAATTCA, the “PBM E-score” value was 0.119. In the case of TCCTGTAA, the “PBM E-score” value is reported as 0.274. With ATGTATTC the “PBM E-score” value was 0.443. With ACACCTGC the “PBM E-score” value was 0.0902. CTGCGAGA was tested, and the “PBM E-score” value was -0.213. In the case of ACCTACTG, the “PBM E-score” value is reported as -0.13. With CGTGCACC the “PBM E-score” value was -0.205. ACTGCTGG was tested, and the “PBM E-score” value was -0.326. With GATCACCC the “PBM E-score” value was -0.182. For CGGAATTC, the “PBM E-score” value was -0.0647. With ACCGTGCC the “PBM E-score” value was -0.298. CTTATTAC was tested, and the “PBM E-score” value was 0.27. CCCGGGCG was tested, and the “PBM E-score” value was 0.0279. In the case of ACGTACTG, the “PBM E-score” value is reported as 0.0905. CACGTAGG was tested, and the “PBM E-score” value was 0.0707. In the case of ACGTGCTC, the “PBM E-score” value is reported as 0.0521. CAGAAGCA was tested, and the “PBM E-score” value was -0.107. With ATACTAAC the “PBM E-score” value was 0.137. With ACGGCTCA the “PBM E-score” value was -0.0622. For ACGTATCG, the “PBM E-score” value was 0.143. AGCGAGAA was tested, and the “PBM E-score” value was -0.0609. In the case of CGCAGTGC, the “PBM E-score” value is reported as -0.0495. In the case of TCAACAGA, the “PBM E-score” value is reported as 0.149. With CTTATCCA the “PBM E-score” value was -0.0319. In the case of CCATCCCG, the “PBM E-score” value is reported as -0.241. In the case of AAAAGATA, the “PBM E-score” value is reported as 0.0885. With ACCATGGC the “PBM E-score” value was 0.0362. TATCTCAA was tested, and the “PBM E-score” value was 0.172. AACCGATA was tested, and the “PBM E-score” value was 0.116. In the case of AACTCCTG, the “PBM E-score” value is reported as -0.114. For GATTTGCA, the “PBM E-score” value was 0.0853. For CGAGACCG, the “PBM E-score” value was 0.00239. With GGCAATAC the “PBM E-score” value was 0.131. In the case of GCCTTCGA, the “PBM E-score” value is reported as -0.209. For AGTGGAAA, the “PBM E-score” value was -0.0167. For AAGCAGAC, the “PBM E-score” value was -0.0944. With CTTCATAC the “PBM E-score” value was 0.126. In the case of ATCAACAC, the “PBM E-score” value is reported as 0.399. With ACATCTAG the “PBM E-score” value was 0.0527. For TCTAGACA, the “PBM E-score” value was 0.217. With CTGAAAGA the “PBM E-score” value was -0.0885. With CCGTGCGA the “PBM E-score” value was -0.0238. For ATCGGGCC, the “PBM E-score” value was -0.242.

Source: the supplement of paper PMC3334620
